Out of some 150,000 compounds screened, about 540 (0.36%) showed an effect of 50% or more. Some of the results follow.

The subject of this test is Plasmodium falciparum. Kind of test: Primary screen in NF54 nanoGlo assay, in single point, at 2uM, 72h; a lower Z score goes with more inhibition. Format: functional, Erythrocyte. The conditions noted are these: timepoint 72 hour.
For `Cn1cc(CC(=O)NC[C@@]2(C)CCCN2Cc2ccccc2)cn1`, the “% Inhibition” value is -4% and the Z score was 0.37.
On to `Cc1nc(N)nc(C)c1CC(=O)N1CCC[C@H](C(=O)Cc2ccccc2)C1`, for which the “% Inhibition” value amounted to 5% and the Z score is reported as -0.71.
As to `CCCn1c(C(=O)N2CCOCC2)cc2sccc21`, the “% Inhibition” value worked out at 31% and the Z score was -4.18.
For `C=CCNC(=O)CNC1(c2ccccc2F)CC1` the same measures were 12% and -1.58.
In the case of `Cc1n[nH]c(C)c1-c1cc(NCCO)nc(N)n1`, the “% Inhibition” value is given as 2% and the Z score is -0.24.
For `NS(=O)(=O)c1ccc(NC(=O)COC(=O)c2ccc3c(c2)CCCC3)cc1` the same measures were -2% and 0.46.
For the compound `COc1cccc(C(C)CC(=O)NCC(C)(O)C(C)C)c1` (stereo unspecified), the “% Inhibition” value is recorded as -6% and the Z score came out at 0.82.
With `CCCC(=O)N1CCC[C@H](CCc2nnc(-c3cnccn3)o2)C1`, the “% Inhibition” value is recorded as -15% and the Z score is recorded as 1.82.
Take `CC(C)n1cnnc1C[C@H]1CCN(C(=O)NC2CCCCC2)C1`: the “% Inhibition” value is -12% and the Z score was determined as 2.06.
For `N#Cc1ccccc1CO/N=C(\N)c1nonc1N`, the “% Inhibition” value is -3% and the Z score stood at 0.34.
On to `Cc1cc(Cl)ccc1-c1ccc2nc(-c3ccc(Cl)cc3)c(CN3CCN(C(=O)c4cccc(F)c4)CC3)n2c1`, for which the “% Inhibition” value is on record as -24% and the Z score came out at 2.12.
Turning to `O=C(NCC1(O)C2C3CC4C5C3CC2C5C41)c1coc(C2CCCCC2)n1` (stereo unspecified), the “% Inhibition” value was -16% and the Z score is reported as 1.38.
As to `O=S(=O)(N1CCCCCC1)N1CCN(Cc2cccnc2)CC1`, the “% Inhibition” value is given as -2% and the Z score is 0.24.
For `CC(=O)N[C@@H]1c2ccccc2C2(CCN(C(=O)CCc3ccc(C)cc3)CC2)[C@H]1OCc1ccncc1` the same measures were -6% and 0.78.
Take `CC(=O)NCc1nc(C2CC2)nn1CC(F)(F)F`: the “% Inhibition” value is reported as 10% and the Z score is recorded as -1.27.
For `CCCCNC(=O)NS(=O)(=O)c1ccc2c(c1)NC(=O)CO2` the same measures were -3% and 0.54.
For `CN1CCC(N(C)C(=O)c2cc3oc(-c4ccc(F)cc4)cc3n2Cc2ccccc2)CC1` the same measures were -13% and 1.92.
For `Nc1c(F)ccc(Br)c1F`, the “% Inhibition” value is -4% and the Z score is on record as 0.44.
On to `O=C1[C@H]2[C@H](Cc3ccc(O)cc3)N[C@@]3(C(=O)Nc4ccccc43)[C@H]2C(=O)N1CC1CCCO1` (stereo partly specified), for which the “% Inhibition” value is -12% and the Z score is listed as 1.61.
Consider `Cc1ccc(S(=O)(=O)NC[C@@](O)(c2ccccc2)C2CCOCC2)s1`, for which the “% Inhibition” value was -9% and the Z score is given as 1.74.
As to `Cc1n[nH]c(C)c1CNC(=O)[C@@H]1CCCC[C@@H]1C(=O)N1CCCC1`, the “% Inhibition” value is -12% and the Z score turned out to be 2.12.
Take `CC1CS(=O)(=O)CCN1C(=O)N[C@H](C)c1ccccc1Cl` (stereo partly specified): the “% Inhibition” value was -4% and the Z score is listed as 0.49.
Regarding `O=C(c1ccc(Cl)cc1)N1CCC2(CC1)Nc1ccccc1S(=O)(=O)N2`, the “% Inhibition” value is recorded as -3% and the Z score is reported as 0.49.
As for `CC(C)NC(=O)N1CCC(N2CC3(CCCCC3)[C@H]2c2ccccc2)CC1`, the “% Inhibition” value was found to be 3% and the Z score is on record as -0.46.
On to `Cc1ccc(-c2cn(-c3ccc(C)cc3)c(NC(=O)CN(Cc3ccccc3)C(=O)C3CCCC3)n2)cc1`, for which the “% Inhibition” value was determined as 3% and the Z score was -0.4.
For `COCc1nnc(NC(=O)c2n[nH]c3c2CCC3)s1`, the “% Inhibition” value is reported as -9% and the Z score was found to be 1.46.
`Cn1nc(C(=O)NC[C@H]2Cc3ccccc3CN2)cc1N`: the “% Inhibition” value is -7% and the Z score worked out at 1.13.
Regarding `O=C(NCC(F)(F)F)C(=O)NCC1(CO)CC1`, the “% Inhibition” value is on record as -4% and the Z score is reported as 0.47.
Regarding `CCOC(=O)N1CCC(NC2CCOC2c2ccccc2)CC1` (stereo unspecified), the “% Inhibition” value is recorded as -1% and the Z score amounted to 0.18.
On to `COc1ccc2c(c1)[C@@H](NC(=O)c1cn[nH]c1)CCO2`, for which the “% Inhibition” value is listed as 0% and the Z score is listed as -0.04.
For `CCOc1ccc(S(=O)(=O)N2CCCC[C@H]2CC)cc1` the same measures were 12% and -1.04.
For `CCOCCn1nc(C)cc1C(=O)N1CCC[C@](C)(c2ccccc2)C1` the same measures were 12% and -1.65.
Turning to `COc1ccccc1NC(=O)[C@@H]1COCC(=O)N1Cc1cccs1`, the “% Inhibition” value was -11% and the Z score is 2.07.
For the compound `Cc1n[nH]c(C)c1CNC1CCC(F)C1` (stereo unspecified), the “% Inhibition” value is recorded as -4% and the Z score worked out at 0.54.
Turning to `CCN1CCN(S(=O)(=O)N2CCc3ccccc3C2)CC1`, the “% Inhibition” value came to 3% and the Z score is -0.53.
On to `N#Cc1cccc(N2CCC3(CC2)CNC(=O)C3)n1`, for which the “% Inhibition” value is 0% and the Z score is reported as -0.03.
For `Cn1cccc1CCC(=O)NCCc1noc(C2CC2)n1`, the “% Inhibition” value is on record as -5% and the Z score turned out to be 0.69.
For the compound `O=C(C[C@H](c1ccccc1F)c1cn(Cc2ccc(F)cc2)c2ccccc12)N1CCOCC1`, the “% Inhibition” value was -5% and the Z score was 1.01.
For the compound `COCCN1CCN(C(=O)c2cc3c(C)nn(-c4ccccc4)c3s2)C[C@@H]1C`, the “% Inhibition” value was -18% and the Z score was 2.53.
For `CC1CN(C2CC2)CC1NC(=O)N1Cc2cccc(C#N)c2C1` (stereo unspecified) the same measures were 6% and -1.12.
Regarding `Cc1cc(C)n(CC2(CNC(=O)C3(N4CCCCC4)CCCCC3)CC2)n1`, the “% Inhibition” value came out at 8% and the Z score was -1.2.
With `Cc1cc(C)cc(-c2nnc(NC(=O)N3CCC[C@@H]3CO)s2)c1`, the “% Inhibition” value is reported as 30% and the Z score is given as -4.33.
Turning to `C/C(=C\c1ccccc1)CN(C)[C@@H](C)c1cccnc1`, the “% Inhibition” value is -7% and the Z score is 1.25.
Turning to `O=S(=O)(Nc1cccc(Cl)c1)c1cccn2cnnc12`, the “% Inhibition” value is given as 34% and the Z score is recorded as -3.86.
As for `CCc1nc(CC(=O)N2CCc3sccc3[C@@H]2C)cs1`, the “% Inhibition” value was -21% and the Z score came out at 2.42.
Regarding `COc1ccc2c(C)c(C(=O)N3CCN(C(C)=O)CC3)oc2c1`, the “% Inhibition” value is 10% and the Z score was -1.42.
As to `Cc1cc(C(=O)NC2(CN3CCN(c4ccc(F)cc4)CC3)CC2)ccn1`, the “% Inhibition” value is -14% and the Z score is reported as 2.3.
On to `Cc1ccnc(NS(=O)(=O)c2ccc(NC(=O)c3ccc4c(c3)OCO4)cc2)n1`, for which the “% Inhibition” value is -9% and the Z score is reported as 1.18.
With `O=C(CCc1cccc(F)c1F)OC[C@H]1CNC(=O)O1`, the “% Inhibition” value is -8% and the Z score came out at 1.05.
On to `Cc1ccc(NC(=O)[C@@H]2CNC[C@H](C(=O)NC3CCCCCC3)C2)cc1`, for which the “% Inhibition” value was -5% and the Z score was determined as 1.01.
In the case of `COc1ccccc1/N=C(\NC(=O)c1ccc(F)cc1)N1CCN(c2ccc(F)cc2)CC1`, the “% Inhibition” value is reported as -1% and the Z score came out at 0.2.
Turning to `CC(C)C1CCN(C(=O)Nc2cccc3ccn(C)c23)CC1`, the “% Inhibition” value is given as 9% and the Z score is listed as -1.27.
As to `O=C(c1cc2cc(F)ccc2[nH]1)N1[C@@H]2CC[C@H]1C[C@@H](O)C2`, the “% Inhibition” value is on record as -8% and the Z score was determined as 1.32.
For `COCC(=O)N[C@@H]1CN(C(=O)Cc2cccc(F)c2)CC[C@@H]1CO` the same measures were -9% and 1.26.
For `COc1cccc(N2CCN(C(=O)Cc3ccccc3)[C@@H](C)C2=O)c1` the same measures were -5% and 0.55.
Take `O=C(c1ccoc1)N1CCC2(CCCCC2)C1`: the “% Inhibition” value is on record as -1% and the Z score is recorded as 0.11.
`CCOc1ccc(C(=O)NCc2ccccc2)nn1`: the “% Inhibition” value is on record as -12% and the Z score worked out at 1.37.
For `CC(C)C(=O)N(CC(=O)Nc1nc(-c2ccccc2)cn1-c1ccc(F)cc1)C(C)C` the same measures were -4% and 0.77.
For `COc1ccc(-c2nc(N3CCN(c4ccc(Cl)c(Cl)c4)CC3)nc3nn(C)c(N)c23)c(F)c1` the same measures were 2% and -0.24.
Take `Cc1cccc(CNc2cc(C(=O)N3CCc4ccccc4C3)cc(S(=O)(=O)N(C)C)c2)c1`: the “% Inhibition” value is recorded as -13% and the Z score is listed as 2.52.
On to `CC(C)(C)n1c(=O)c2ccc(F)cc2n1CC(=O)NCc1ccc(Cl)cc1`, for which the “% Inhibition” value came to 9% and the Z score is -1.37.
With `Cc1ccc(CNC(=O)[C@@H]2C[C@H](n3cnnn3)CN2CCCc2ccccc2)cc1`, the “% Inhibition” value is listed as -3% and the Z score was 0.67.
Regarding `CCCN1CCN(C(=O)c2cnn(C)c2)[C@H]2CS(=O)(=O)C[C@H]21`, the “% Inhibition” value is reported as 7% and the Z score is on record as -1.13.
In the case of `CN(CC1CCOC1)C(=O)NC(c1ccccn1)C1CCCC1` (stereo unspecified), the “% Inhibition” value is given as -4% and the Z score amounted to 0.75.
For `Cc1cc2c(cc1S(=O)(=O)N1CCC(C(=O)N(Cc3ccccc3)C(C)C)CC1)OCC(=O)N2` the same measures were -15% and 1.72.
As for `Cc1cc(F)ccc1CN1CCN(C)[C@]2(CCC(=O)N(CC3CC3)CC2)C1`, the “% Inhibition” value was -17% and the Z score is given as 1.58.
Regarding `CO[C@@H]1CC[C@@]2(OC)CCN(C(=O)c3cnn(Cc4ccccc4)c3)[C@H]2C1`, the “% Inhibition” value is -1% and the Z score was found to be 0.29.
For `Fc1ccc(-c2nsc3c(N4CCNCC4)ncnc23)cc1` the same measures were 9% and -1.59.
For `CCCOCCN1CCC[C@H](c2cc(N3CCOCC3)nc(C)n2)C1` the same measures were -7% and 0.89.
For `Cc1ccc(NC(=O)CC(=O)N2CC[C@@H](O)C2)c(C)c1`, the “% Inhibition” value is reported as -6% and the Z score came out at 1.36.
`CCn1nccc1C=C(C)c1cnccn1`: the “% Inhibition” value is 3% and the Z score is recorded as -0.28.
Consider `CCn1nnc2c(=O)n(Cc3ccccn3)cnc21`, for which the “% Inhibition” value came out at 1% and the Z score is given as -0.11.
Take `O=C(NCC[C@H]1CCCCO1)Nc1cccn(CC(F)(F)F)c1=O`: the “% Inhibition” value is given as -10% and the Z score is 0.99.
Turning to `Fc1cccc(-c2cn[nH]c2C2CCN(CCCC(F)(F)F)CC2)c1`, the “% Inhibition” value was -3% and the Z score is on record as 0.56.
On to `COc1ccc(C2CC(c3ccc(OC)cc3)n3ncnc3N2C(=O)C(C)C)cc1` (stereo unspecified), for which the “% Inhibition” value is on record as 30% and the Z score is recorded as -3.38.
As to `CCC(CC)NC1CCN(c2ccc(-n3cccn3)cc2)CC1`, the “% Inhibition” value is -13% and the Z score came out at 1.83.
Consider `O=C(C[C@@H]1C(=O)Nc2c(F)cccc21)NCc1nnc(C2CC2)s1`, for which the “% Inhibition” value is given as -15% and the Z score came to 1.5.
In the case of `Clc1ccc2c(c1Cl)CC[C@@H]2Nc1ccc2nnnn2n1`, the “% Inhibition” value came to 13% and the Z score was -1.66.
`O=C(Cc1ccc(O)cc1)N1CCC2(CCC(=O)N(C[C@H]3CCCO3)C2)CC1`: the “% Inhibition” value was -8% and the Z score is on record as 0.97.
Turning to `CCn1c(CCc2cccc(NC(=O)Nc3ccccc3)c2)nc2ccccc21`, the “% Inhibition” value turned out to be 1% and the Z score was -0.11.
Turning to `CO[C@H]1C[C@H]2CC(NCc3noc(C4CC4)n3)C[C@H]2C1` (stereo partly specified), the “% Inhibition” value was -5% and the Z score is recorded as 0.83.
For `CN(CCCNC(=O)CN1C(=O)CCn2nc(-c3cccc(Cl)c3)cc21)Cc1ccccc1` the same measures were 0% and 0.03.
For `CCC(CC)NC(=O)Nc1nc(-c2ccccc2Cl)co1` the same measures were -9% and 1.68.
